# Data taken from PMC12820563.
# The list shows a part of the results. The list includes weakly bound sequences.
# Target: T1, MBP-FoxP3dN (UniProt Q99JB6)
# T1 sequence: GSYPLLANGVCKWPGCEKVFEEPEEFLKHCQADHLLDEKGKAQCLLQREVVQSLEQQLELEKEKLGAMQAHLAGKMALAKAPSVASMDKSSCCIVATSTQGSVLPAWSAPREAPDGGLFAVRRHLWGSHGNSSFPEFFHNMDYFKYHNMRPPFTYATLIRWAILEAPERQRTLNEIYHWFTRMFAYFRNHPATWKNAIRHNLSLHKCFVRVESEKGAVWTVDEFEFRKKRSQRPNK
# Test: PD-seq (MBP pull-down with sequencing)
# Details: 20 mM Tris-HCl pH 7.5, 100 mM NaCl, 1.5 mM MgCl2, 0.4 uM protein, 0.1 uM dsDNA library, 30 min, room temperature, amylose pull-down; high values mean tight binding; double strand, one strand shown
row,Sequence,binding signal (RPM ratio (pull-down/input))
1,GATGATTGTTCTCCCAGCTGATGAATTAGAACGATCGAGTAAACAAATTTTCCTAATCTTTCTGTTCAAGCGCCATCTAC,0.211
2,GATGATTGTTCTCCCAGCTGATGAATTAGGCTCGTCGAGTAAACAAATTTTCCTAATCTTTCTGTTCAAGCGCCATCTAC,0.572
3,GATGATTGTTCTCCCAGCTGATGAATTCACCATTTCGAGTAAACAAATTTTCCTAATCTTTCTGTTCAAGCGCCATCTAC,0.406
4,GATGATTGTTCTCCCAGCTGATGAATTATTGCTGTCGAGTAAACAAATTTTCCTAATCTTTCTGTTCAAGCGCCATCTAC,0.856
5,GATGATTGTTCTCCCAGCTGATGAATTCGGCATTTCGAGTAAACAAATTTTCCTAATCTTTCTGTTCAAGCGCCATCTAC,5.91
6,GATGATTGTTCTCCCAGCTGATGAATTTGTGCCGTCGAGTAAACAAATTTTCCTAATCTTTCTGTTCAAGCGCCATCTAC,1.88
7,GATGATTGTTCTCCCAGCTGATGAATTCGCCGTGTCGAGTAAACAAATTTTCCTAATCTTTCTGTTCAAGCGCCATCTAC,0.538
8,GATGATTGTTCTCCCAGCTGATGAATTACTATACTCGAGTAAACAAATTTTCCTAATCTTTCTGTTCAAGCGCCATCTAC,0.498
9,GATGATTGTTCTCCCAGCTGATGAATTGTAATGGTCGAGTAAACAAATTTTCCTAATCTTTCTGTTCAAGCGCCATCTAC,0.799
10,GATGATTGTTCTCCCAGCTGATGAATTACGTATTTCGAGTAAACAAATTTTCCTAATCTTTCTGTTCAAGCGCCATCTAC,2.14
11,GATGATTGTTCTCCCAGCTGATGAATTGGGTCAGTCGAGTAAACAAATTTTCCTAATCTTTCTGTTCAAGCGCCATCTAC,0.263
12,GATGATTGTTCTCCCAGCTGATGAATTTGAACTTTCGAGTAAACAAATTTTCCTAATCTTTCTGTTCAAGCGCCATCTAC,0.288
13,GATGATTGTTCTCCCAGCTGATGAATTGAGATAGTCGAGTAAACAAATTTTCCTAATCTTTCTGTTCAAGCGCCATCTAC,0.436
14,GATGATTGTTCTCCCAGCTGATGAATTAATCAGATCGAGTAAACAAATTTTCCTAATCTTTCTGTTCAAGCGCCATCTAC,0.222
15,GATGATTGTTCTCCCAGCTGATGAATTTAGCTCTTCGAGTAAACAAATTTTCCTAATCTTTCTGTTCAAGCGCCATCTAC,0.542
16,GATGATTGTTCTCCCAGCTGATGAATTCCCATAATCGAGTAAACAAATTTTCCTAATCTTTCTGTTCAAGCGCCATCTAC,0.258
17,GATGATTGTTCTCCCAGCTGATGAATTACCGCGATCGAGTAAACAAATTTTCCTAATCTTTCTGTTCAAGCGCCATCTAC,0.524
18,GATGATTGTTCTCCCAGCTGATGAATTAAGCTTGTCGAGTAAACAAATTTTCCTAATCTTTCTGTTCAAGCGCCATCTAC,2.78
19,GATGATTGTTCTCCCAGCTGATGAATTAGAGAACTCGAGTAAACAAATTTTCCTAATCTTTCTGTTCAAGCGCCATCTAC,0.229
20,GATGATTGTTCTCCCAGCTGATGAATTTCTTGATTCGAGTAAACAAATTTTCCTAATCTTTCTGTTCAAGCGCCATCTAC,0.43
21,GATGATTGTTCTCCCAGCTGATGAATTGACCTCGTCGAGTAAACAAATTTTCCTAATCTTTCTGTTCAAGCGCCATCTAC,0.289

row,Sequence,binding signal (RPM ratio (pull-down/input))
1,GATGATTGTTCTCCCAGCTGATGAATTGGTCGAATCGAGTAAACAAATTTTCCTAATCTTTCTGTTCAAGCGCCATCTAC,0.299
2,GATGATTGTTCTCCCAGCTGATGAATTGTGTATCTCGAGTAAACAAATTTTCCTAATCTTTCTGTTCAAGCGCCATCTAC,6.36
3,GATGATTGTTCTCCCAGCTGATGAATTCAACCGCTCGAGTAAACAAATTTTCCTAATCTTTCTGTTCAAGCGCCATCTAC,0.233
4,GATGATTGTTCTCCCAGCTGATGAATTGAGAAGCTCGAGTAAACAAATTTTCCTAATCTTTCTGTTCAAGCGCCATCTAC,0.212
5,GATGATTGTTCTCCCAGCTGATGAATTACTGTGGTCGAGTAAACAAATTTTCCTAATCTTTCTGTTCAAGCGCCATCTAC,0.412
6,GATGATTGTTCTCCCAGCTGATGAATTCGGTTCTTCGAGTAAACAAATTTTCCTAATCTTTCTGTTCAAGCGCCATCTAC,0.963
7,GATGATTGTTCTCCCAGCTGATGAATTTGAAGTCTCGAGTAAACAAATTTTCCTAATCTTTCTGTTCAAGCGCCATCTAC,0.493
8,GATGATTGTTCTCCCAGCTGATGAATTTATCGTTTCGAGTAAACAAATTTTCCTAATCTTTCTGTTCAAGCGCCATCTAC,2.47
9,GATGATTGTTCTCCCAGCTGATGAATTCACAAACTCGAGTAAACAAATTTTCCTAATCTTTCTGTTCAAGCGCCATCTAC,0.364
10,GATGATTGTTCTCCCAGCTGATGAATTAGAAAACTCGAGTAAACAAATTTTCCTAATCTTTCTGTTCAAGCGCCATCTAC,0.244
11,GATGATTGTTCTCCCAGCTGATGAATTCGTGTCGTCGAGTAAACAAATTTTCCTAATCTTTCTGTTCAAGCGCCATCTAC,1.17
12,GATGATTGTTCTCCCAGCTGATGAATTTTCTCGGTCGAGTAAACAAATTTTCCTAATCTTTCTGTTCAAGCGCCATCTAC,0.178
13,GATGATTGTTCTCCCAGCTGATGAATTATACCATTCGAGTAAACAAATTTTCCTAATCTTTCTGTTCAAGCGCCATCTAC,0.547
14,GATGATTGTTCTCCCAGCTGATGAATTGAATCAGTCGAGTAAACAAATTTTCCTAATCTTTCTGTTCAAGCGCCATCTAC,0.31
15,GATGATTGTTCTCCCAGCTGATGAATTCGCTAGCTCGAGTAAACAAATTTTCCTAATCTTTCTGTTCAAGCGCCATCTAC,0.479
16,GATGATTGTTCTCCCAGCTGATGAATTTCAATGGTCGAGTAAACAAATTTTCCTAATCTTTCTGTTCAAGCGCCATCTAC,0.455
17,GATGATTGTTCTCCCAGCTGATGAATTCAATGATTCGAGTAAACAAATTTTCCTAATCTTTCTGTTCAAGCGCCATCTAC,0.879
18,GATGATTGTTCTCCCAGCTGATGAATTACCACAATCGAGTAAACAAATTTTCCTAATCTTTCTGTTCAAGCGCCATCTAC,0.556
19,GATGATTGTTCTCCCAGCTGATGAATTCCTAATTTCGAGTAAACAAATTTTCCTAATCTTTCTGTTCAAGCGCCATCTAC,0.286
20,GATGATTGTTCTCCCAGCTGATGAATTGTGTTCATCGAGTAAACAAATTTTCCTAATCTTTCTGTTCAAGCGCCATCTAC,1.77
21,GATGATTGTTCTCCCAGCTGATGAATTGAGTAACTCGAGTAAACAAATTTTCCTAATCTTTCTGTTCAAGCGCCATCTAC,1.15

row,Sequence,binding signal (RPM ratio (pull-down/input))
1,GATGATTGTTCTCCCAGCTGATGAATTCCCGGAATCGAGTAAACAAATTTTCCTAATCTTTCTGTTCAAGCGCCATCTAC,0.137
2,GATGATTGTTCTCCCAGCTGATGAATTGTGCATTTCGAGTAAACAAATTTTCCTAATCTTTCTGTTCAAGCGCCATCTAC,7.44
3,GATGATTGTTCTCCCAGCTGATGAATTCTTAGTCTCGAGTAAACAAATTTTCCTAATCTTTCTGTTCAAGCGCCATCTAC,0.339
4,GATGATTGTTCTCCCAGCTGATGAATTGGACCATTCGAGTAAACAAATTTTCCTAATCTTTCTGTTCAAGCGCCATCTAC,0.374
5,GATGATTGTTCTCCCAGCTGATGAATTTAGGCCCTCGAGTAAACAAATTTTCCTAATCTTTCTGTTCAAGCGCCATCTAC,0.674
6,GATGATTGTTCTCCCAGCTGATGAATTATACATGTCGAGTAAACAAATTTTCCTAATCTTTCTGTTCAAGCGCCATCTAC,0.765
7,GATGATTGTTCTCCCAGCTGATGAATTCAGAAACTCGAGTAAACAAATTTTCCTAATCTTTCTGTTCAAGCGCCATCTAC,0.477
8,GATGATTGTTCTCCCAGCTGATGAATTTTGCCCGTCGAGTAAACAAATTTTCCTAATCTTTCTGTTCAAGCGCCATCTAC,2.4
9,GATGATTGTTCTCCCAGCTGATGAATTCGTACCGTCGAGTAAACAAATTTTCCTAATCTTTCTGTTCAAGCGCCATCTAC,0.483
10,GATGATTGTTCTCCCAGCTGATGAATTACACTATTCGAGTAAACAAATTTTCCTAATCTTTCTGTTCAAGCGCCATCTAC,0.606
11,GATGATTGTTCTCCCAGCTGATGAATTTCACCCATCGAGTAAACAAATTTTCCTAATCTTTCTGTTCAAGCGCCATCTAC,0.324
12,GATGATTGTTCTCCCAGCTGATGAATTGCGAAACTCGAGTAAACAAATTTTCCTAATCTTTCTGTTCAAGCGCCATCTAC,0.927
13,GATGATTGTTCTCCCAGCTGATGAATTGCGCGGGTCGAGTAAACAAATTTTCCTAATCTTTCTGTTCAAGCGCCATCTAC,1.11
14,GATGATTGTTCTCCCAGCTGATGAATTTACGTCCTCGAGTAAACAAATTTTCCTAATCTTTCTGTTCAAGCGCCATCTAC,0.69
15,GATGATTGTTCTCCCAGCTGATGAATTACTGAATTCGAGTAAACAAATTTTCCTAATCTTTCTGTTCAAGCGCCATCTAC,0.586
16,GATGATTGTTCTCCCAGCTGATGAATTCTAATATTCGAGTAAACAAATTTTCCTAATCTTTCTGTTCAAGCGCCATCTAC,1.35
17,GATGATTGTTCTCCCAGCTGATGAATTGAGGCTATCGAGTAAACAAATTTTCCTAATCTTTCTGTTCAAGCGCCATCTAC,1.18
18,GATGATTGTTCTCCCAGCTGATGAATTTAGTCCATCGAGTAAACAAATTTTCCTAATCTTTCTGTTCAAGCGCCATCTAC,0.461
19,GATGATTGTTCTCCCAGCTGATGAATTGCATCCCTCGAGTAAACAAATTTTCCTAATCTTTCTGTTCAAGCGCCATCTAC,4.21
20,GATGATTGTTCTCCCAGCTGATGAATTAACCGTGTCGAGTAAACAAATTTTCCTAATCTTTCTGTTCAAGCGCCATCTAC,0.36
21,GATGATTGTTCTCCCAGCTGATGAATTAACGGTGTCGAGTAAACAAATTTTCCTAATCTTTCTGTTCAAGCGCCATCTAC,0.494
